Target: human DNMT3B PWWP domain (residues 206–355), wild type (human, UniProt Q9UBC3 206-355)
Assay: ITC

Kd: 49 µM
B1: human DNMT3B ADD domain ([…]), wild type (domain or fragment)
chain: not shown

Reference: PMC10711551 (Nucleic Acids Research, 2023)
